Results as given in the supplement of paper PMC4166925.
± gives the standard deviation of the averaged measurements. Over roughly 33,000 sequences, “E-score (dimensionless, -0.5 to 0.5)” has its median near -0.046; the highest 2% begin near 0.36. The list shows a part of the results.

The sequences below were run on T1, SpTbr T-box DNA-binding domain (GST fusion) (assay: PBM E-score of 8-mer (E-score (dimensionless, -0.5 to 0.5)); Tbr is Tbrain of the sea star Patiria miniata (Pm) or the sea urchin Strongylocentrotus purpuratus (Sp); higher = stronger binding preference; most listed sequences are background and not binding sites). Settings: the construct has about 5 more residues each side.
T1 sequence: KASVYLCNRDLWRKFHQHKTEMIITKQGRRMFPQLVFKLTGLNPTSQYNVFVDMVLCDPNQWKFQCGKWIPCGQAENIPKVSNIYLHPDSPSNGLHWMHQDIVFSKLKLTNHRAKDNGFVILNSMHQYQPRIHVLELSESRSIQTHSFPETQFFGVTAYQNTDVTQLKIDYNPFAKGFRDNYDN
Method: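 Universal protein-binding microarray (Agilent AMADID 016060, 60-bp probes with a 35-bp variable region) incubated with 200 nM GST-fused Strongylocentrotus purpuratus Tbr T-box DNA-binding domain (residues 362-554) in PBS pH 7.5. Scored for every ungapped 8-mer (given with its reverse complement) as E-score (range -0.5 to 0.5; >0.45 counts as bound) and Z-score of median probe intensity. Two replicate arrays (datasets 1 and 2).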
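Note: protein at 200 nM in PBS on universal double-stranded arrays.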

Sequence	PBM E-score of 8-mer
AACATCGA	0.0413 ± 0.043
CAAATCGA	-0.0494 ± 0.049
ATACGTTC	-0.105 ± 0.0093
GGTGCTTA	0.0813 ± 0.098
ACTCTATC	-0.103 ± 0.042
GACGCCGC	0.0108 ± 0.043
ACCCGGCA	0.0763 ± 0.041
CCGCAATA	-0.108 ± 0.0022
CAACAAAG	0.0729 ± 0.02
ACAGTACG	-0.186 ± 0.066
GATACGAA	-0.0398 ± 0.079
ATGCGCAT	-0.0516 ± 0.17
CGATGAGC	-0.0456 ± 0.11
AATAGTAC	-0.139 ± 0.066
ATCGGGCG	-0.00975 ± 0.05
CGTTTGAA	-0.067 ± 0.0095
CGTACGAG	-0.198 ± 0.1
GCGTGAAC	0.456 ± 0.0075
CTATGAAG	-0.226 ± 0.0027
AAGGTGGC	0.372 ± 0.0085
GCTCTGTA	-0.199 ± 0.025
AGTAAAAA	-0.224 ± 0.024

Sequence	PBM E-score of 8-mer
AGTAGGGA	-0.297 ± 0.088
ATCTCCTC	-0.0194 ± 0.039
CTACGCTC	-0.232 ± 0.0073
AATGAACC	-0.075 ± 0.066
ACCACCGT	0.0835 ± 0.0064
AATATTCC	-0.1264 ± 0.00081
ACGGGGGG	-0.0337 ± 0.022
AGCCTCAC	0.178 ± 0.015
CCGAATGA	-0.173 ± 0.053
CGGCGCAC	0.0249 ± 0.048
ATTTTGCG	0.101 ± 0.019
GCGCCCCC	-0.0866 ± 0.022
CCGTCGAG	-0.104 ± 0.023
AAATAATT	-0.0728 ± 0.066
AAGGGTTA	-0.0482 ± 0.0044
ACTTACCG	-0.1401 ± 0.00043
CACCTGTA	0.331 ± 0.036
GGAGGCAC	-0.152 ± 0.12
ATACAAAG	-0.19 ± 0.03
ACACAACG	0.238 ± 0.0099
ACTAGACC	-0.275 ± 0.038
AACTCGCC	0.17 ± 0.0045

Sequence	PBM E-score of 8-mer
ATCGGTGC	-0.0391 ± 0.032
AATCATTC	-0.0441 ± 0.037
GCACACGA	-0.113 ± 0.11
CGAGGGCA	-0.0321 ± 0.028
ATCGCTAA	0.117 ± 0.016
GAATAGAA	-0.0134 ± 0.012
AGACCGAA	-0.354 ± 0.023
CTGCTAAG	0.0672 ± 0.03
ACGCATGG	-0.144 ± 0.018
GATATCGC	0.266 ± 0.019
ACGTACGG	-0.106 ± 0.045
GTGGGTCA	-0.0719 ± 0.046
AAGGCAGT	-0.0222 ± 0.0029
AAGGCATA	-0.131 ± 0.084
AAGCCGTA	-0.206 ± 0.062
ATAAGCCC	-0.176 ± 0.035
GGATACGA	0.0477 ± 0.082
ATGATAAA	0.105 ± 0.11
CCCCAAAA	-0.112 ± 0.042
ATATACGG	-0.0598 ± 0.014
CATCTAGG	0.00735 ± 0.031
CTTCGTAA	0.00265 ± 0.034

Sequence	PBM E-score of 8-mer
CCTAATAA	-0.102 ± 0.037
CCTCAGGA	-0.158 ± 0.025
AAAACCCA	-0.103 ± 0.011
GCTCGCAA	0.224 ± 0.021
ACTGGGTG	0.0609 ± 0.0055
ACTCTTTC	0.0551 ± 0.015
ATCTAGAA	-0.151 ± 0.049
CCTTCTGA	-0.142 ± 0.036
ACTCGATG	-0.0556 ± 0.081
CAGGCCTG	-0.346 ± 0.071
CGCAGGGA	-0.15 ± 0.0056
AGTGTAGA	0.0751 ± 0.037
TACCCCTA	-0.231 ± 0.028
ATATCAAA	-0.163 ± 0.015
TAGATCTA	-0.0421 ± 0.046
AGCCGTTC	0.0442 ± 0.006
CGCAAGCG	-0.00658 ± 0.068
GGTCGGAC	-0.274 ± 0.021
CTGCATTC	-0.122 ± 0.0089
CAACACAC	0.207 ± 0.031
AAGTCGTC	0.155 ± 0.0024
GACAGAGC	-0.298 ± 0.022

Sequence	PBM E-score of 8-mer
AACTGGGA	-0.154 ± 0.013
GCTACCCA	-0.172 ± 0.08
AAAAAGGG	-0.284 ± 0.051
AGGGAAAA	-0.354 ± 0.005
AGAGGGTC	-0.177 ± 0.0093
GCTGGCCA	-0.16 ± 0.0033
CCTACTTA	0.134 ± 0.0065
ACAGACAA	0.0566 ± 0.0091
AGACGGGC	-0.0517 ± 0.011
AAGTCTCT	-0.0296 ± 0.026
ATCTACAG	-0.159 ± 0.026
CAATGTGA	0.262 ± 0.026
GAGCTCAC	0.0227 ± 0.09
ACGGATTC	-0.0948 ± 0.14
TATGCGGA	-0.318 ± 0.027
CGCACGCA	0.216 ± 0.023
CAGGGACA	-0.0686 ± 0.058
GTATTTCA	-0.18 ± 0.08
AGCTCGGA	-0.0281 ± 0.0059
CACCCCAC	0.293 ± 0.038
AGTGTTGG	0.3684 ± 7.1e-06
